# Reference: the supplement of paper PMC11417369
# ± gives the standard deviation of the averaged measurements. Some of the results follow.
# System: PfAP2-EXP AP2 domain (GST-tagged)
# Experiment: gcPBM binding intensity (ln(normalized median fluorescence intensity)); higher = stronger DNA binding
# How it was run: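 The highest Masliner-normalised natural-log median intensity across replicate spots of either probe orientation is reported as binding intensity. GST-tagged P. falciparum DNA-binding domains expressed in E. coli were applied for 1 h to an Agilent 4 × 180k array of primer-extended double-stranded 36-bp intergenic genomic probes plus negative controls, and bound protein was detected with Alexa488 anti-GST antibody and scanned at 488 nm.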
row,Sequence,gcPBM binding intensity (ln)
1,ATATATACTATAATAGTGCATTAAAAAAGTAAAAAT,9.05 ± 0.16
2,AAATATAATATACAAAGTACTTTTTCATCTTATATA [XGTACX_site8771],8.24 ± 0.092
3,AGACAATAATATAATCGTACAATAAATAAAATAAAA [XGTACX_site5231],8.78 ± 0.25
4,AAAATAATCTTTTGATTGCACTGTTACATTTTTTCT [GTGCAC_site9563],8.51 ± 0.25
5,TATAATATATTTTAATGTACGTACATCCCGATTAAT [XGTACX_site7651],8.79 ± 0.27
6,ATTTTTTTTTCTTAATGTACATACCAAAAAGAAAGA [XGTACX_site5471],8.57 ± 0.33
7,GATAAAATATGTTGCCGTACATATTCATATACTTAA [XGTACX_site4776],8.64 ± 0.38
8,TATTAATATATATGTTGTACAAGTTTTTTTTTTTTT [XGTACX_site5865],8.61 ± 0.5
9,TTTGTCTGCATACGCACACACGTGTACCATCTTATG [CACACA_site4784],9.23 ± 0.52
10,TATATACGCATTTTTATACACACTTGTTTTATAAAA [CACACA_site727],8.64 ± 0.35
11,ATATAAAATAATACATGTACATATTATATATATATA [XGTACX_site1082],9.62 ± 0.3
12,TTCTATATTTCTTTTTGTACATATAAATTCAAATAA [XGTACX_site2476],8.95 ± 0.23
13,TATTTATATTCATAATGTACATTCAATTATTGTTTT [XGTACX_site4191],8.99 ± 0.88
14,AAATATTAAATGACAAAAAAAAAAAAAAAAGGGGTT [CACACA_negctrl_site951],8.32 ± 0.4
15,TTCTTTATTTTTTCTACACACATTATATATTCAAAG [CACACA_site5866],8.89 ± 0.35
16,TATTTTGAAAATAAAAGTACAAATTTTATATTTAAA [XGTACX_site3238],8.11 ± 0.33
17,TAAAAGTTCACCTGTACACACATATATATATGTACA [CACACA_site1707],8.57 ± 0.31
18,TTTTTTATTTTTTGTTATATTTATAATAATTTATGA [XGTACX_negctrl_site260],8.45 ± 0.69
19,ATATATATATATGTAGTGCATTTTATATATAATATT,9.97 ± 0.43
20,TACTTTACACATATTTTTAATTATTCTGAATTCAAA [GTGCAC_negctrl_site253],8.51 ± 0.37
21,TACAGATATTTTATTTCACACATTTTATCATTTTCT [CACACA_site5701],8.88 ± 0.33
22,TTCAAAAAAGGAAAGTTGCACTTGATACGCTTATTA [GTGCAC_site9411],8.58 ± 0.27

row,Sequence,gcPBM binding intensity (ln)
1,ATAAGTAATATAATATGTACATATATATATATATAT [XGTACX_site3818],10.2 ± 0.37
2,AAGAAATAAATACATACACACATATATATATATATA [CACACA_site3362],10 ± 0.34
3,GGAAATTTCAATATTTGTACATATATATATATATAT [XGTACX_site3222],10.1 ± 0.38
4,ATGCAAAATAAAGAAGCACACAAAAATGAAATATAT [CACACA_site9217],9.06 ± 0.4
5,AGAATAATTTTATCGGTACACACTGTATGCATAATA [CACACA_site374],8.79 ± 0.47
6,TATATATTGTTATAATGTACATAATATTTTATCTGC [XGTACX_site4983],8.41 ± 0.4
7,ATATTATTTTATGCTACACACATTTTCTCTTATAAA [CACACA_site943],8.86 ± 0.33
8,AATATATTTTAGAGTTTTATATATTTTATGCATATA [GTGCAC_negctrl_site710],8.4 ± 0.44
9,TTCAAACATATTAATTGTACATACAACAAAACCATG [XGTACX_site5149],8.79 ± 0.28
10,TGGAAAATAAAGTACGCACACAAAAATTCTCTTCAT [CACACA_site2327],8.71 ± 0.56
11,ATATGTATTTATGTATTTATGTATTTTTATATTTTT [CACACA_negctrl_site595],8.52 ± 0.43
12,AAAAAAAAAAAACACACACACACATTCAATATAAAA [CACACA_site40],8.4 ± 0.58
13,TAAATGTTAAAATTCACACAAATATGTGCGGAATAT [CACACA_site5055],8.52 ± 0.43
14,GGAATTTTTATTCGAAGTACTGTTGTGAGTAATAAA [XGTACX_site8599],8.57 ± 0.4
15,ATATATAATATATACACACACATGTATATATAAATA [CACACA_site1968],8.35 ± 0.4
16,ACCCATTTGATAATAATGCACACCACATATATTTAT [CACACA_site3061],8.82 ± 0.16
17,TGCAAGGAACAACACACACACACATAAATGTATATA [CACACA_site8149],8.56 ± 0.49
18,TTTGACTAAATTAAATATTAAAGTATGGATTATTCT [CACACA_negctrl_site833],8.05 ± 0.55
19,AAGACCATATGAATAATGCACACGTTTTAAAATATT [CACACA_site2323],8.78 ± 0.39
20,TTTCCATTTTCTCTATGTACATAAAAATGAGATAAA [XGTACX_site5689],8.56 ± 0.28
21,CACACGCACGGACACACACACAAAAAAAAAAAGAAA [CACACA_site6378],8.53 ± 0.17
22,GTTTGGTGGTGTTTTGGTACGTACGGGGGTGTATGT [XGTACX_site1211],9.66 ± 0.2
